# From PubChem BioAssay AID2147 (National Center for Advancing Translational Sciences (NCATS), 2009)
# About 3,600 (1.6%) of roughly 230,000 compounds were called active. The shares of active, inactive and inconclusive entries below differ from those in the screen. Calls come from the whole dose curve; as a rule, active = well fitted inhibition curve with a large enough effect (not every such curve was filed as active); inconclusive = small, poorly fitted or top-dose-only effect, or another doubt; inactive = no such curve, though single readings can be large or run the other way. Potencies of inconclusive entries are doubtful fits and often do not repeat.
# Target: Lysine-specific demethylase 4E (Homo sapiens) (UniProt B2RXH2)
# UniProt B2RXH2, sequence (B2RXH2 whole entry, looked up, the tested form may be a part): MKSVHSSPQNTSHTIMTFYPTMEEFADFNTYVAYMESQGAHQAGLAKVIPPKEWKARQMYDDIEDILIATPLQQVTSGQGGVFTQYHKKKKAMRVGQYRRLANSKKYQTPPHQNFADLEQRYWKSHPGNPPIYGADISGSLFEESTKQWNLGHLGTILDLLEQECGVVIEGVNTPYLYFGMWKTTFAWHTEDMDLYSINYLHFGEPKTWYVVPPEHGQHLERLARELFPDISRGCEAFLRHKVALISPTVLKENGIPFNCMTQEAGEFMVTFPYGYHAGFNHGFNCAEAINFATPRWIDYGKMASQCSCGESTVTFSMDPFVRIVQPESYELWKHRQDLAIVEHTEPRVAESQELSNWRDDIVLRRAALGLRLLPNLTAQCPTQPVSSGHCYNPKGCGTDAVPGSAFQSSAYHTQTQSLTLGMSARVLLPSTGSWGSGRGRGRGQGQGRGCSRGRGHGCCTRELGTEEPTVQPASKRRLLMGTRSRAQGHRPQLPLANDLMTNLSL
# Experiment: qHTS Assay for Inhibitors of Human Jumonji Domain Containing 2E (JMJD2E)
# Details: JMJD2E catalytic domain, FDH-coupled NADH fluorescence (FDH is formaldehyde dehydrogenase); series mostly up to 57.1 µM
# Note: nearly all actives have a fitted effect of over 50% in size.
# Potency is the fitted concentration of half-maximal effect; tags give direction and shape of the fitted curve.
row,SMILES,Potency
1,CCN1CCc2c(sc(NC(=S)NC(=O)c3ccccc3)c2C#N)C1,inactive
2,CCOc1c(Cl)cc(C(=O)Nc2ccccc2-c2ccccc2)cc1Cl,"inconclusive: 39.8 µM [inhibitor, single point]"
3,Cn1c(=O)oc2cc(S(=O)(=O)N3CCCC(C(=O)N4CC=C(c5ccccc5)CC4)C3)ccc21 (stereo unspecified),inactive
4,O=C(O)C(c1ccccc1)N1C(=O)/C(=C/c2cccs2)SC1=S (stereo unspecified),inactive
5,CCOc1c(Br)cc(C(N)=O)cc1OCc1ccccc1,inactive
6,CNC(=O)NC(=O)C(C)OC(=O)c1c2c(nc3ccccc13)/C(=C/c1cccs1)CC2 (stereo unspecified),"inconclusive: 7.08 µM [inhibitor, single point]"
7,CCOCCCNC(=O)/C(C#N)=C/c1ccc(-c2ccc(S(=O)(=O)N3CCOCC3)cc2)o1,"inconclusive: 31.6 µM [inhibitor, partial curve]"
8,COc1ccccc1NC(=S)NNC(=O)c1nn(C)c(C)c1Br,active: 7.94 µM
9,Clc1ccc(-c2cc3ccccc3nc2N2CCOCC2)cc1,"inconclusive: 31.6 µM [inhibitor, single point]"
10,O=C1SCCC1NC(=O)C(c1ccccc1)c1ccccc1 (stereo unspecified),inactive
11,Cc1ccc(CNc2oc(-c3ccco3)nc2S(=O)(=O)c2ccccc2)cc1,"inconclusive: 39.8 µM [inhibitor, single point]"
12,CC12CCC3c4ccc(OCc5ccccc5)cc4CCC3C1CC(O)C2O (stereo unspecified),inactive
13,CCC(=O)N1CCN(c2ccc(NC(=O)c3ccc4c(c3)OCO4)cc2)CC1,"inconclusive: 35.5 µM [inhibitor, single point]"
14,CC(C)C[C@@H](CC(=O)N[C@@H](CCC(=O)O)CC(=O)O)NC(=O)[C@@H]1CCCC[C@H]1NC(=O)C[C@@H](NC(=O)C[C@H](CO)NC(=O)[C@@H]1CNCC[C@H]1N)C(C)C,inactive
15,COc1ccc(C2CC(c3cccs3)=NN2c2nc(-c3ccccc3)cs2)cc1OC (stereo unspecified),inactive
16,COC(=O)c1cccc(NC(=O)C(C)(C)C)c1,inactive
17,c1ccc(Cn2nnc3cnccc32)cc1,"inconclusive: 0.0045 µM [inhibitor, full curve, poor fit]"
18,N#Cc1ccc(N2Cc3ccccc3C2=NC(=O)c2cccs2)cc1,"inconclusive: 28.2 µM [inhibitor, partial curve]"
19,O=C(Nc1ccc(Cl)cc1)Nc1cc(S(=O)(=O)N2CCOCC2)ccc1N1CCCC1,inactive
20,CC1(C)Cc2nc3oc4c(=O)n(CC(=O)Nc5ccc(Cl)cc5)cnc4c3cc2CO1,"inconclusive: 31.6 µM [inhibitor, single point]"
21,CC1(C)Cc2c(c(N3CCOCC3)nc3sc(C(N)=O)c(N)c23)CO1,"inconclusive: 28.2 µM [inhibitor, partial curve]"
22,CCOc1ccc(C(=O)/C=C/c2cc(OC)c(OC)c(OC)c2)cc1,"inconclusive: 39.8 µM [inhibitor, single point]"
23,COc1cc(-c2nc(-c3cccc(C)c3)no2)cc(OC)c1OC,"inconclusive: 17.8 µM [inhibitor, partial curve]"
24,CCOC(=O)NC(Nc1sc2c(c1C(N)=O)CCCC2)(C(=O)OCC)C(F)(F)F (stereo unspecified),"inconclusive: 39.8 µM [inhibitor, single point]"

row,SMILES,Potency
1,Cc1cc(C)cc(OCC(=O)Nc2ccc(N3CCCC3)cc2)c1,"inconclusive: 39.8 µM [inhibitor, single point]"
2,O=C(O)CCC(=O)NNc1ncnc2ccccc12,"inconclusive: 22.4 µM [inhibitor, single point]"
3,N#C/C=C1\Sc2ccccc2C(=O)N1CC(=O)N1CCN(S(=O)(=O)c2ccccc2)CC1,"inconclusive: 39.8 µM [inhibitor, single point]"
4,CCCn1c(=O)c(C(=O)NNS(=O)(=O)c2ccc(C)cc2)c(O)c2ccccc21,"inconclusive: 35.5 µM [inhibitor, single point]"
5,CSc1ccc(/C=C(/NC(=O)c2ccc(C)cc2)C(=O)Nc2cccc(F)c2)cc1,"inconclusive: 25.1 µM [inhibitor, partial curve]"
6,CCCCN(C)CCn1c(=S)[nH]c2ncccc2c1=O,inactive
7,O=C(/C=C/c1ccccc1)NC(=S)NNC(=O)c1cnccn1,active: 8.91 µM
8,COc1ccc(-n2cc(CNC3CCN(C)CC3)c(-c3cccc(F)c3)n2)cc1,"inconclusive: 31.6 µM [inhibitor, partial curve]"
9,O=[N+]([O-])c1ccc(-n2cccn2)c(-c2nn[nH]n2)c1,inactive
10,Cc1cc(N2CCCCC2)nc2c(C)cccc12,"inconclusive: 25.1 µM [inhibitor, partial curve]"
11,O=C(Nc1nc(-c2cccs2)cs1)c1cccc(S(=O)(=O)N2CCCCC2)c1,"inconclusive: 39.8 µM [inhibitor, single point]"
12,O=C(Nc1ccccc1)/C(=C/c1ccccc1)c1ccccc1,active: 28.2 µM
13,Cc1[nH]nc2c1-c1nc3ccccc3nc1C(C)(C)C2,"inconclusive: 31.6 µM [inhibitor, partial curve]"
14,CCOC(=O)C1CCN(c2ncnc3c2c(-c2ccccc2)cn3-c2ccc(C)cc2)CC1,"inconclusive: 39.8 µM [inhibitor, single point]"
15,O=C(NNS(=O)(=O)c1cccc(Cl)c1)c1cc(-c2ccc(F)cc2)nc2ccccc12,"inconclusive: 28.2 µM [inhibitor, partial curve]"
16,O=C(Cc1ccc(Br)cc1)N1CCN(c2ccccn2)CC1,"inconclusive: 28.2 µM [inhibitor, partial curve]"
17,CCOc1ccc(CC(=O)N2CCN(c3ccc(N4CCOCC4)nn3)CC2)cc1OCC,"inconclusive: 31.6 µM [inhibitor, partial curve]"
18,CC(C)Cn1cc(C(=O)NCCCOC(C)C)c2c3ccccc3n(C)c2c1=O,"inconclusive: 17.8 µM [inhibitor, partial curve]"
19,Cc1cc(/C=C2/C(=N)N3C(=NC2=O)SN=C3S(C)(=O)=O)c(C)n1-c1ccc(F)cc1,active: 31.6 µM
20,CC(C)CC(=O)NC(c1ccccc1Cl)c1c(O)ccc2ccccc12 (stereo unspecified),"inconclusive: 28.2 µM [inhibitor, partial curve]"
21,CCN1CCN(C(=O)CCNC(=O)Cn2ccc3ccccc3c2=O)CC1,"inconclusive: 39.8 µM [inhibitor, single point]"
22,CN(CCn1ccnc1)Cc1cn(-c2ccccc2)nc1-c1ccc2c(c1)OCO2,"inconclusive: 28.2 µM [inhibitor, partial curve]"
23,Cc1ccc(NC(=O)C2C3C=CC4(CN(Cc5cccnc5)C(=O)C24)O3)cc1F (stereo unspecified),inactive
24,O=C(CSc1nnc(Cc2ccc(Cl)cc2)o1)Nc1ccccc1,inactive

row,SMILES,Potency
1,CCOC(=O)/C(C#N)=C/c1cccc([N+](=O)[O-])c1,"inconclusive: 25.1 µM [inhibitor, single point]"
2,CN(c1ccccc1)S(=O)(=O)c1cc(Cl)ccc1Cl,"inconclusive: 7.08 µM [inhibitor, single point]"
3,O=C(NC(=S)N1CCN(c2nc(-c3ccccc3)cs2)CC1)c1cccnc1,inactive
4,COc1cccc(/C=N/n2c(-c3n[nH]c4c3CCC4)n[nH]c2=S)c1O,active: 31.6 µM
5,O=C(Nc1ccc2c(c1)oc1ccccc12)c1ccncc1,"inconclusive: 35.5 µM [inhibitor, single point]"
6,Cc1ccnc(N2CCC(C(=O)Nc3nnc(C)s3)CC2)n1,"inconclusive: 28.2 µM [inhibitor, single point]"
7,O=C(CSc1nnc(-c2ccccc2Cl)o1)Nc1ccccn1,"inconclusive: 35.5 µM [inhibitor, single point]"
8,COc1ccc2nc(NC(=O)CSc3nc(SC)ns3)sc2c1,"inconclusive: 39.8 µM [inhibitor, single point]"
9,CCc1nc2sc3ccccc3c(=O)c2c(=O)n1Cc1ccco1,inactive
10,c1ccc(Nc2nc(NCc3ccco3)c3ccccc3n2)cc1,"inconclusive: 25.1 µM [inhibitor, partial curve]"
11,O=C(O)CCN1C(=O)C2CCCCC2C1=O (stereo unspecified),inactive
12,COc1cc(/C=C/C(=O)c2ccc(NS(=O)(=O)c3ccc(C)cc3)cc2)cc(OC)c1O,"inconclusive: 22.4 µM [inhibitor, single point]"
13,CCOc1ccc(/C=C/C(O)=C2/C(=O)NC3(C)CC2c2ccccc2O3)cc1OC (stereo unspecified),"inconclusive: 35.5 µM [inhibitor, single point]"
14,O=C(N/N=C/c1sc(N2CCOCC2)nc1-c1ccccc1)c1cccc(S(=O)(=O)N2CCOCC2)c1,"inconclusive: 31.6 µM [inhibitor, single point]"
15,COC(=O)Nc1ccc(=O)n(Cc2c(Cl)cccc2Cl)c1,"inconclusive: 25.1 µM [inhibitor, partial curve]"
16,CCC(C)NC(=O)C(=O)NCc1ccccn1 (stereo unspecified),inactive
17,Oc1ccc(/C=N\Nc2nncc(-c3ccccc3)n2)cc1,"inconclusive: 39.8 µM [inhibitor, single point]"
18,COc1ccccc1C(=O)NCC(=O)N/N=C/c1ccc([N+](=O)[O-])cc1,inactive
19,CCOc1cc(-c2nc3ccccn3c2NCC2CCCO2)ccc1O (stereo unspecified),"inconclusive: 22.4 µM [inhibitor, partial curve]"
20,NC(=O)/C=C/C(=O)Nc1ccc(Cl)cc1,inactive
21,Cc1ccc2nc(N/C(=N/S(=O)(=O)c3ccc(F)cc3)c3ccccc3)sc2c1,"inconclusive: 28.2 µM [inhibitor, partial curve]"
22,Cc1ccccc1C1=Nn2c(nnc2-c2ccco2)SC1,inactive
23,COc1ccc2[nH]c(=O)c(COC(=O)c3ccco3)cc2c1,"inconclusive: 22.4 µM [inhibitor, partial curve]"
